We go through 44 sequences from the supplement of paper PMC11417369.

Some of the results follow.

In this assay the test system is PfHDP1 homeodomain (GST-tagged). In words: gcPBM binding intensity (ln(normalized median fluorescence intensity)); higher = stronger DNA binding. Put shortly:
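Alexa488 anti-GST antibody, scanned at 488 nm, detected GST-tagged P. falciparum DNA-binding domains that had been expressed in E. coli and incubated for 1 h on an Agilent 4 × 180k array. The array carried primer-extended double-stranded 36-bp intergenic genomic probes and negative controls. Binding intensity is the highest Masliner-normalised natural-log median intensity across replicate spots of either orientation of each probe.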
As for “ACACATTCGAAAAATTGTACATATATAACAGAATAT [XGTACX_site7106]”, the “gcPBM binding intensity (ln)” value was determined as 6.66.
In the case of “AGTCATATAAATAGTAGTACTGTGTGTGAAGAAAAA [XGTACX_site5056]”, the “gcPBM binding intensity (ln)” value was 6.81.
As for “ACAAATATGAGAAATTGTACATATAATAAAATAGTA [XGTACX_site2573]”, the figure is 6.74.
The value for “GATATGATATGATATGCATGTAACAAATTTTTTTAA [TGCATGCA_site268]” was 6.98.
As to “AAAAAAAAATATATATATATATATATATTTATGTAT [GTGCAC_negctrl_site483]”, the “gcPBM binding intensity (ln)” value was determined as 6.92.
As for “ATATTAATTTCTTATGCATGTTCTACCAAATTGTAT [TGCATGCA_site38]”, the figure is 7.09; as for “AAAAAAAATAAAAATAGTACTCAAAAAATTATGAAT [XGTACX_site3073]”, 6.4; as for “TTCTTCAATAATAAGTGTACATATGCATACATTATA [XGTACX_site1502]”, 6.81.
As for “AATTAAAAAATTTATGCACACTTTAAAAAAAAAAAA [CACACA_site5962]”, the figure is 9.66; as for “ATAATAAAATAAGAAGCACACAAATATTATATATAA [CACACA_site9319]”, 6.72.
As for “TTTTTTTTTTTTTTAACACACATATATATATTTTTC [CACACA_site1922]”, the figure is 6.67; as for “CCTCATCCACTATGCACACAAAAAAGAAATACACTA [CACACA_site3422]”, 9.52.
With “TAATGGATTATACGTGCACACATATATACAAATAAA [CACACA_site8116]”, the “gcPBM binding intensity (ln)” value amounted to 9.65.
The value for “TTATTTATTTTTATATGTACACAAAAAAAAAAAAAA [XGTACX_site1459]” was 6.53.
In the case of “AATATATATAACGTTGGTACACAAAAATTATTAAAT [XGTACX_site8572]”, the “gcPBM binding intensity (ln)” value was 6.72.
The value for “AATGTATTTATTTTTTGTACATATCGTGTGTGTATT [XGTACX_site1009]” was 6.63; that for “TTCTATTATGTGACTCAATTCTTCATGGGTGTATAA [TGCATGCA_negctrl_site140]” was 6.6; that for “TTTGGAATATAATATTGTACATATTATATATATATA [XGTACX_site3187]” was 8.53.
As for “TTTTTTTTTAAATATACACACACATTTATACATATA [CACACA_site9122]”, the figure is 6.76; as for “TATACATATGTATGCACACATACATACACATAGAAT [CACACA_site3480]”, 9.51.
The value for “TATATTATTTAAAAAGTGCAGTTACAAGATGAACCT [GTGCAC_site9641]” was 6.36; that for “GGAAAGACATTACACAGTACCCAGGAAATCTACGGA [XGTACX_site2002]” was 6.25.
On to “TAATATTTATTCTATTGTACATAAAATATATATATA [XGTACX_site7132]”, for which the “gcPBM binding intensity (ln)” value was found to be 8.12.
The value for “ATAAATAAAAAACACACACACACACCCAAAAAAAAA [CACACA_site2624]” was 6.79.
For “ATTATATATGTATAAATATGCTATATATATATATAT [GTGCAC_negctrl_site430]”, the “gcPBM binding intensity (ln)” value was 9.42.
As for “TCAACATTTAAAAATAGTACTCATAAACCTTTCGAA [XGTACX_site4111]”, the figure is 6.03; as for “AATTATATTAATTCTTCATTACATTTTAAAATATTA [XGTACX_negctrl_site510]”, 6.35; as for “AATACGCATTTTAGTACACACTTAAAAAGTTATTTT [CACACA_site7401]”, 6.21.
As to “TTATAATATAAAAATAAATAAATAAATAAATAAATA [CACACA_negctrl_site1587]”, the “gcPBM binding intensity (ln)” value was 6.49.
For the sequence “TGCTATTATTTATGTACACACCAATTTATTTATAAT [CACACA_site6029]”, the “gcPBM binding intensity (ln)” value amounted to 7.13.
The value for “TTCGTTATATTTTGATGTACTGATTCATATATATAT [XGTACX_site1835]” was 8.09; that for “ATTGATTTTTAATATACACACATAAGGACCACAAAA [CACACA_site4344]” was 7.03; that for “AGAGAATATTTCCACACATGCAAATGTTATATGTAA [TGCATGCA_site282]” was 6.57.
Consider “ATTCGGATATATATCACACATAACTTTAATAATATA [CACACA_site5720]”, for which the “gcPBM binding intensity (ln)” value is 6.52.
Consider “ATTATAATAGTTAAATGTACACACTAACTACATGGA [XGTACX_site6918]”, for which the “gcPBM binding intensity (ln)” value came out at 6.5.
“AATTAAAAATTCAAGTGTACTTTTATATTATTATAC [XGTACX_site4106]”: the “gcPBM binding intensity (ln)” value was found to be 5.98.
With “TAAATAGCCAAACGCACACCCACAAAAAAAAAAAAA [CACACA_site1554]”, the “gcPBM binding intensity (ln)” value is 6.51.
As for “TCATATTTGCCTTTTTATTTAGAACACAAAAAAAAA [CACACA_negctrl_site1152]”, the figure is 6.17.
The value for “TATATATAATATACATGTACAAATGTATTTAAAAAT [XGTACX_site6090]” was 6.49; that for “CAAAAAAAGAAAGCTACACACATTTATGTGCTATAT [CACACA_site2777]” was 6.72.
As for “AGAAAATACACGCATACACACACACCCACCCACATA [CACACA_site8115]”, the figure is 7.25.
With “TATCTCTCTTTCTGCTGTACATAAAAATTATATAAT [XGTACX_site5961]”, the “gcPBM binding intensity (ln)” value is 7.19.
Consider “AACATATTTTTAAATACACACACATAAAAAAAAAAA [CACACA_site8279]”, for which the “gcPBM binding intensity (ln)” value is 6.75.
The value for “AAAATAACGAGTCAAACACACATATATATATATATA [CACACA_site2039]” was 9.39.
